Reference: PubChem BioAssay (NCATS)
This list was built around the results that the source calls inconclusive (neither active nor inactive); the mix of calls is not that of the screen. Active and inactive are the calls of the source. Calls follow the shape of the dose curve; as a rule, active = well fitted curve in either direction with a large enough effect (not every such curve was filed as active); inconclusive = small, poorly fitted or top-dose-only effect, or another doubt; inactive = flat fitted curve, though single readings scatter.

Assay: NFAT Signaling Pathway (AID 444);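 also: carbachol stimulus at about its EC50 of 1 µM final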
Details: Jurkat NFAT-bla M1, carbachol, beta-lactamase ratio, 5 h; at 17.2 µM (top of the series) unless noted
In short: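 Jurkat cells carrying an NFAT-driven β-lactamase reporter and co-transfected muscarinic M1 receptor were treated with compound plus carbachol (1 uM final, an EC50 level) for 5 h at 37 °C. CCF4 loading followed for 1 h at RT; 460/530 nm ratio gave %activity.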
% is scaled to controls: 0 for no effect and ±100 for the full control effect.

SMILES | activity change, negative = inhibition
C[N+](C)([O-])Cc1cc(-c2ccccc2)ccc1O | inactive: 1.32% [at 7.69 µM]
Cc1cc2ccccc2c[n+]1CC(O)C[n+]1cc2ccccc2cc1C | inconclusive: -38.1% [inhibitor] [at 7.69 µM]
OCCNc1nc(-c2ccccc2)c2ccccc2n1 | inconclusive: 17.8% [inhibitor]
CCN(CC)CCCn1c(C)cc2c(c1=O)C(c1ccccc1)C(C#N)=C(N)O2 (configuration not stated) | inconclusive: -58.3% [inhibitor]
CCCSc1nc(C)c(CC(=O)OCC)c(=O)[nH]1 | inactive: -4.22%
N#Cc1nc(COc2ccccc2F)oc1NCCCn1ccnc1 | inactive: -21.7%
O=C(O)c1cccc(C(=O)O)c1S(=O)Cc1ccccc1 (configuration not stated) | inactive: 7.39% [at 7.69 µM]
CC[C@@H](CS(=O)(=O)O)[N+](=O)[O-] | inactive: 19.9% [at 7.69 µM]
O=c1c2c3c(sc2n2cnnc2n1C1CCCCC1)CCC3 | inactive: -1.53%
CC1(C)S[C@@H]2[C@H](NC(=O)C3(N)CCCCC3)C(=O)N2[C@@H]1C(=O)O | inactive: 9.48% [at 7.69 µM]
O=C(CN1CCc2[nH]c3ccccc3c2C1)N1CCCCC1 | inactive: -20.1%
COc1ccc2cc1Oc1ccc(cc1)C[C@@H]1c3c(cc(OC)c4c3Oc3cc5c(cc3O4)CCN[C@H]5C2)CCN1C | inconclusive: -76.2% [inhibitor] [at 7.69 µM]
CN(CC(=O)O)CC(=O)O | inactive: 11.1% [at 7.69 µM]
Cc1sccc1C1C(C#N)=C(N)SC(N)=C1C#N | inactive: 15%
CC(=O)Nc1cccc(NC(=O)CSc2nc(C)c(C)c(C)c2C#N)c1 | inactive: 8.76%
C1CCCN(CCCCN2CCCCCC2)CC1 | inconclusive: -43.5% [inhibitor]
CN(C)C(=O)C1CCN(Cc2c[nH]c3ccccc23)CC1 | inconclusive: 0.868% [activator] [at 7.69 µM]
CC[C@](N)(C(=O)O)C(C)C | inactive: -9.09% [at 7.69 µM]
CO[C@H]1C=CO[C@@]2(C)Oc3c(C)c(O)c4c(O)c(c(C=NN5CCN(C)CC5)c(O)c4c3C2=O)NC(=O)C(C)=CC=C[C@H](C)[C@H](O)[C@@H](C)[C@@H](O)[C@@H](C)[C@H](OC(C)=O)[C@@H]1C | inactive: 18.4%
CCCc1cc(NCCCCO)n2c(nc3ccccc32)c1C#N | inconclusive: -7.05% [inhibitor]
CN=C1c2cc3c(Br)c(OC)ccc3n2CCN1C | inactive: -7.64%
COc1ccc(C(=O)N2CCC[C@@]3(CCN(c4ccncc4)C3)C2)cc1 | inactive: -12.2% [at 7.69 µM]
Cc1cnc(CNc2ncnc3ccc(-c4cccc(C#N)c4)cc23)cn1 | inconclusive: 38.7% [activator] [at 7.69 µM]
O=C(O)c1ccc(C(=O)O)c(C(=O)Nc2ccc3c(c2)Cc2ccccc2-3)c1 | inactive: 4.14% [at 7.69 µM]
Clc1ccc2c(c1)N(CCCN1CCCC13CCCCC3)c1ccccc1S2 | inconclusive: -48.3% [inhibitor] [at 7.69 µM]
COc1ccccc1CN1CCC2(CC1)CCN(C(=O)c1ccco1)CC2 | inconclusive: -69% [inhibitor] [at 7.69 µM]
COc1ccc(Nc2cc(C)nc3ccccc23)cc1 | inconclusive: -36% [inhibitor]
